Reference: the supplement of paper PMC12217912
This is one part of the list. The full chains were built here from the parent and the listed change. Inactive controls read about 0.05.

B1: TEV protease; numbered along this chain (parent)
chain: MGESLFKGPRDYNPISSSICHLTNESDGHTTSLYGIGFGPFIITNKHLFRRNNGTLVVQSLHGVFKVKDTTTLQQHLVDGRDMIIIRMPKDFPPFPQKLKFREPQREERICLVTTNFQTKSMSSMVSDTSCTFPSGDGIFWKHWIQTKDGQCGSPLVSTRDGFIVGIHSASNFTNTNNYFTSVPKNFMELLTNQEAQQWVSGWRLNADSVLWGGHKVFMVKPEEPFQPVKEATQL

Variants of: B1
Assay: raw area under fraction-flipped curve 0-4 h after induction (AUC4h, not background-subtracted), DNA-recorder readout of cleavage of the substrate (dimensionless); higher = more cleavage of the substrate by the protease variant
Conditions: temperature: 34 °C; time window: 0-4 h after rhamnose induction
Description: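 In vivo DNA recorder in E. coli TOP10(DE3) ΔrhaA at 34 °C. Each TEVp single-site mutant (parent TEVp 0) is paired with a single-site variant of the 7-mer TEVs (canonical ENLYFQ|S). The substrate sits between flexible linkers in a Bxb1-sfGFP-TEVs-SsrA fusion, so cleavage stabilises Bxb1 and speeds flipping of a recombination array, read by NGS. The value is the raw area under the fraction-flipped curve over 0-4 h after rhamnose induction (AUC4h), with ≥20 reads per time point. It is not background-subtracted; inactive controls average about 0.047.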
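Also: Bxb1 expression induced with 0.2% (w/v) L-rhamnose at OD600 near 0.5, cultures sampled hourly, flipped fraction per protease–substrate barcode pair counted by paired-end Illumina sequencing.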

Row | Variant | area with substrate ENLYFQA | area with substrate ENLYFQC | area with substrate ENLYFQD | area with substrate ENLYFQF | area with substrate ENLYFQG | area with substrate ENLYFQH | area with substrate ENLYFQI | area with substrate ENLYFQK | area with substrate ENLYFQL | area with substrate ENLYFQM | area with substrate ENLYFQN | area with substrate ENLYFQP | area with substrate ENLYFQR | area with substrate ENLYFQS | area with substrate ENLYFQT | area with substrate ENLYFQV | area with substrate ENLYFQY | area with substrate ENLYFQE | area with substrate ENLYFQW | area with substrate ENLYFQQ
1 | N24A | 0.0813 | 0.0694 | 0.0736 | 0.0636 | 0.0623 | 0.0805 | 0.0628 | 0.0578 | 0.0593 | 0.0576 | 0.0714 | 0.059 | 0.061 | 0.0805 | 0.0678 | 0.0604 | 0.071 |  |  | 
2 | L5M | 0.14 | 0.124 |  | 0.0862 |  |  | 0.047 | 0.0732 | 0.0657 | 0.111 | 0.0897 |  |  | 0.129 | 0.0759 |  | 0.112 | 0.0846 | 0.0613 | 
3 | I19G | 0.0731 | 0.073 |  | 0.0866 | 0.0754 | 0.0745 | 0.0548 | 0.0651 | 0.0592 | 0.0506 | 0.0621 | 0.0526 | 0.0545 | 0.0805 | 0.0464 | 0.0541 |  |  | 0.057 | 0.0681
4 | E3N | 0.101 | 0.159 |  |  |  |  |  |  | 0.0366 | 0.116 |  |  |  | 0.127 |  |  | 0.0699 |  | 0.0606 | 
5 | S16F | 0.0914 | 0.119 |  | 0.0642 | 0.124 |  | 0.0699 | 0.0583 |  | 0.0964 | 0.0853 | 0.0557 | 0.0602 | 0.107 | 0.0701 |  |  | 0.0696 | 0.0472 | 0.0694
6 | I15F | 0.101 | 0.099 | 0.0748 |  | 0.0958 | 0.0679 | 0.0644 | 0.0648 | 0.0552 | 0.0821 |  | 0.0733 | 0.0518 | 0.0908 | 0.0606 | 0.0456 |  |  | 0.069 | 0.0744
7 | I15N | 0.0696 | 0.0857 |  |  |  | 0.0568 | 0.0608 | 0.0622 | 0.0582 |  | 0.0624 | 0.0443 | 0.0428 | 0.0749 | 0.0553 | 0.0535 | 0.0604 |  | 0.0518 | 0.0515
8 | I15L | 0.105 | 0.128 | 0.0588 |  | 0.109 | 0.0717 | 0.0491 | 0.0645 | 0.0534 | 0.0785 | 0.0733 | 0.0643 | 0.0586 | 0.0997 | 0.0643 |  | 0.0776 | 0.0468 | 0.0597 | 0.0633
9 | Y12V | 0.0802 | 0.128 |  |  | 0.106 | 0.0758 | 0.0545 | 0.064 | 0.0553 | 0.0765 | 0.0727 |  | 0.0518 | 0.107 | 0.0629 | 0.0633 | 0.0763 | 0.042 | 0.0691 | 0.0782
10 | Y12Q | 0.0752 | 0.103 |  | 0.0809 | 0.0834 | 0.11 | 0.0558 | 0.0685 | 0.0521 | 0.0892 | 0.0702 | 0.0587 | 0.056 | 0.106 | 0.0629 | 0.0517 |  |  | 0.064 | 
11 | S18N | 0.0839 | 0.0896 |  |  | 0.109 |  | 0.065 | 0.0583 | 0.063 | 0.108 | 0.0618 |  | 0.0568 | 0.0965 | 0.0626 |  |  |  | 0.0709 | 
12 | S18T | 0.0841 | 0.129 |  |  | 0.118 |  | 0.0304 | 0.0677 | 0.063 |  | 0.0897 |  | 0.0659 | 0.111 | 0.0683 | 0.0535 | 0.0819 |  | 0.0792 | 
13 | S17G | 0.0657 | 0.123 | 0.0772 | 0.0714 |  | 0.0912 | 0.059 | 0.0588 | 0.0612 | 0.114 | 0.0773 | 0.0543 | 0.059 | 0.108 | 0.0712 | 0.0525 | 0.0621 | 0.0598 | 0.0568 | 
14 | S4L | 0.0683 | 0.0766 | 0.0674 | 0.0604 | 0.0731 | 0.0814 | 0.0557 | 0.0608 | 0.063 | 0.0649 | 0.0696 | 0.0512 | 0.0628 | 0.0747 | 0.0633 | 0.0612 | 0.0633 |  | 0.0693 | 
15 | T23W | 0.0894 | 0.0909 |  | 0.0705 | 0.0823 | 0.0755 | 0.0645 | 0.0634 | 0.0635 | 0.072 | 0.0748 | 0.0567 | 0.0606 | 0.0911 | 0.067 | 0.0648 | 0.0796 |  | 0.0651 | 0.0413
16 | T23G | 0.0565 | 0.0697 | 0.0812 | 0.0704 | 0.0899 | 0.0679 | 0.0667 | 0.0607 | 0.0567 | 0.0671 | 0.0757 |  | 0.0493 | 0.0782 | 0.0562 | 0.058 | 0.0647 |  | 0.0598 | 0.0618
17 | N13Q | 0.117 | 0.124 | 0.0612 | 0.0778 | 0.112 | 0.089 | 0.0589 | 0.0602 | 0.059 | 0.0996 | 0.0629 | 0.0604 | 0.0604 | 0.11 | 0.0677 | 0.068 |  | 0.0787 | 0.0753 | 0.0703
18 | N13C | 0.0886 | 0.104 | 0.06 |  | 0.0768 | 0.0589 | 0.0679 | 0.0638 | 0.0596 | 0.0728 | 0.074 | 0.066 | 0.0598 | 0.103 | 0.0342 | 0.0619 | 0.0719 |  | 0.0479 | 0.0241
19 | H21T | 0.0713 | 0.0934 |  |  | 0.0943 | 0.0834 | 0.0689 | 0.061 | 0.061 | 0.0904 | 0.0734 |  | 0.04 | 0.0919 | 0.0602 | 0.0573 | 0.0633 |  | 0.0664 | 
20 | H21F | 0.0956 | 0.1 | 0.0705 | 0.0853 | 0.14 | 0.0666 | 0.0748 |  | 0.0636 | 0.0822 | 0.0603 | 0.0561 | 0.0562 | 0.0984 |  |  | 0.0798 | 0.0517 | 0.0843 | 
21 | H21E | 0.0098 | 0.0907 |  | 0.0861 | 0.101 |  | 0.0586 | 0.0615 | 0.0575 | 0.0797 | 0.0688 | 0.0584 | 0.0527 | 0.0858 | 0.0619 | 0.0625 | 0.0656 | 0.0888 | 0.0613 | 0.0768
22 | H21I | 0.0804 | 0.0916 | 0.0696 | 0.0852 | 0.0744 | 0.0832 | 0.0617 | 0.0606 | 0.0588 | 0.0854 | 0.0712 | 0.0627 | 0.0609 | 0.0929 | 0.0443 | 0.0624 | 0.0702 |  | 0.0624 | 0.0459
